The whole screen tested about 310,000 compounds, of which about 2,200 (0.71%) showed an effect of 50% or more. The effect is printed as a negative number. Some of the results follow.
molecular target: human ether-à-go-go-related gene (hERG) potassium channel (human, UniProt Q12809); experiment: primary screen, population patch clamp on CHO cells stably expressing hERG
Sequence (Q12809 whole entry, looked up): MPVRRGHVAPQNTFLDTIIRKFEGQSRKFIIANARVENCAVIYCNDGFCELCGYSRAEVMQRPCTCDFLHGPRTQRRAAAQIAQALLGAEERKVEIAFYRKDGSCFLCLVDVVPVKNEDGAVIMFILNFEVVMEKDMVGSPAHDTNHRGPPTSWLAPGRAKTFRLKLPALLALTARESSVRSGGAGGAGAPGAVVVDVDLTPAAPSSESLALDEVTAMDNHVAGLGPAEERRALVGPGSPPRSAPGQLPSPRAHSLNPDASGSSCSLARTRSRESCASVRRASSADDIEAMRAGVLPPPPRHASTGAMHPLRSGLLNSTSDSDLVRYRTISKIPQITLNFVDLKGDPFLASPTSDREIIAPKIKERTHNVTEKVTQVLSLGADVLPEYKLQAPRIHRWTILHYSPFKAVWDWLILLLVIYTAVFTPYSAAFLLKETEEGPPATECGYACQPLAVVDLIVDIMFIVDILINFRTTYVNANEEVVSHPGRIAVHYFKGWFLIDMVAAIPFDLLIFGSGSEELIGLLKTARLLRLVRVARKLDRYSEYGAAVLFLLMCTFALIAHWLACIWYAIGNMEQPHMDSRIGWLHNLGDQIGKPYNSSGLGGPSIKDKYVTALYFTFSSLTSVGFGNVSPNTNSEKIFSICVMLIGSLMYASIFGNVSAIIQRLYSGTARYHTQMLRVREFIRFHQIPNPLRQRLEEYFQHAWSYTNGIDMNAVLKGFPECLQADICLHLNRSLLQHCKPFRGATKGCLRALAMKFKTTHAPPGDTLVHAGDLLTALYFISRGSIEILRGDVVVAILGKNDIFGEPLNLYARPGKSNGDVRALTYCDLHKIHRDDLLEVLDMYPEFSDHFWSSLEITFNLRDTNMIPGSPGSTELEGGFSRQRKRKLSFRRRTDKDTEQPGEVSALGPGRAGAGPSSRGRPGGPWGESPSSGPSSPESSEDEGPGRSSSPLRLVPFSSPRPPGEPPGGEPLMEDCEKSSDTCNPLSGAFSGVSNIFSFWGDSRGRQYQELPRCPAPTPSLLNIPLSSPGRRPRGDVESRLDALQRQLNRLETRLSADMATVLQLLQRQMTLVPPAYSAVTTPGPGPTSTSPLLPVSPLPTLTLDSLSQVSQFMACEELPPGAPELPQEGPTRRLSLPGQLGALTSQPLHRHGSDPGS

Structure (SMILES)	hERG current change (%, negative = inhibition) at 1uM [%]
CCN(CC(=O)Nc1c(F)cccc1F)C(=O)Cc1ccc2c(c1)OCCO2	9.35
O=C(NCC1CCCO1)C(=O)N/N=C/c1ccc(OCc2ccccc2Cl)cc1 (centres unmarked)	8.5
COc1cccc2cc(C(=O)OCC(=O)NCc3ccc4c(c3)OCO4)c(=O)oc12	8.14
COc1cccc(C(=O)NC2CCCc3ccccc32)c1OC (centres unmarked)	12.4
CSc1ncccc1C(=O)NC1CC(C)(C)Cc2c1cnn2-c1ccccc1C (centres unmarked)	3.44
COc1ccc(OP(=O)(Nc2ccccc2)Nc2ccccc2)cc1	5.66
CC(=O)n1cc([C@@H]2C=C(C(=O)Nc3ccccc3)O[C@H](OCc3ccc(CO)cc3)C2)c2ccccc21	5.55
COc1ccc(S(=O)(=O)Nc2ncccn2)cc1	10.2
O=C1CCCC2=C1C(c1ccccc1O)C1=C(CCCC1=O)O2	6.66
Cc1ccc(C(OC(=O)c2ccco2)C(=O)NC2CCCCC2)cc1 (centres unmarked)	16.2
COc1ccc2oc(C(=O)OCC(=O)NC(C)(C#N)C3CC3)c(C)c2c1 (centres unmarked)	16.7
Cc1cccc(N2CCN(c3ccc(C(N)=O)cc3[N+](=O)[O-])CC2)c1C	19.9
Cc1ccc(NC(=O)CCc2c(C)nn(-c3ccc(N4CCOCC4)nn3)c2C)cc1C	8.88
O=c1oc2ccccc2cc1-c1nc2c(s1)CCCC2	7.85
CCOC(=O)c1c(C)[nH]c(N=Nc2ccc(C)cc2C)c1C	13.9
CC1CCCC(NC(=O)Cn2cc3c(n2)CCCCC3)C1C (centres unmarked)	6.63
Cc1cnc(C(=O)N2CCCC(C(=O)c3ccc(C(C)(C)C)cc3)C2)cn1 (centres unmarked)	3.19
CC(=O)Nc1nc(C)c(-c2nc3ccc([N+](=O)[O-])cc3[nH]2)s1	19.4
CN1C=CC2=C(C#N)C(N)C(C#N)(C#N)C(c3ccccc3)C2C1 (centres unmarked)	13.1
c1ccc2c(CNn3cnnc3)cccc2c1	14.4
NC(=O)CSc1nc(O)cc(=O)n1-c1ccccc1	7.53
O=C1C(Cl)=C(Nc2ccccc2O)C(=O)N1c1ccccc1	13.2
O=c1cc(-c2ccccc2F)oc2ccccc12	2.56

Structure (SMILES)	hERG current change (%, negative = inhibition) at 1uM [%]
CCCCC(=O)NNC(=S)NC(=O)CCC	10.9
O=C1CSc2ccc(S(=O)(=O)NCc3ccc(Cl)cc3)cc2N1	11.3
CC(=NCC1CCCO1)c1c(O)n(Cc2ccccc2)c(=O)[nH]c1=O (centres unmarked)	-0.931
Cn1c(=O)c2c(nc3n2CCS3)n(C)c1=O	10.5
N#Cc1nc(COc2ccccc2Cl)oc1NCc1ccco1	12
Cc1ccc(N=Nc2c(N)nn3c(C)cc(C)nc23)cc1	-4.11
Cc1cc(C)c(C#N)c(SCc2ccccc2C(=O)O)n1	4.89
O=C(Nc1nnc(C2COc3ccccc3O2)o1)c1ccc(F)cc1 (centres unmarked)	14.8
CC(=O)Nc1cc(C)c2nc(NC(C)=O)sc2c1	8.22
O=C(NCc1cccnc1)/C(=C/c1ccco1)NC(=O)c1ccccc1	-28.3
COc1ccc(NC(=O)CN2C(=O)c3cccc4cccc2c34)c(OC)c1	12.5
CCN(CC)C(=O)Cn1cnc2sc(C(=O)NCCCN3CCOCC3)c(C)c2c1=O	16.1
O=C1CSC(c2ccccc2Cl)N1 (centres unmarked)	11.6
CCOC(CNC(=O)c1cccn2c(=O)c3cc(Cl)ccc3nc12)OCC	2.09
C=CCc1ccc(OCC(O)CN2CCCCC2C)c(OC)c1.Cl (centres unmarked)	-14.1
COCCNC(=O)c1csc2c1CCCC2	8.93
O=C(NCCCN1CCOCC1)c1cc(C(=O)C2CC2)c[nH]1	21.7
O=C(NCc1ccccc1)C(c1cccnc1)N(Cc1ccco1)C(=O)c1ccccn1 (centres unmarked)	7.61
COCCCn1cnnc1SCC(=O)Nc1ccc(S(=O)(=O)N2CCCC2)cc1	13
CC(C)(C)c1ccc(C(=O)NCCCN2CCN(CCCNC(=O)c3ccc(C(C)(C)C)cc3)CC2)cc1	-5.37
Cc1ccc(S(=O)(=O)Nc2ccc(Cl)cc2C(=O)c2ccc(F)cc2)cc1	5.62
O=C(NCc1cccnc1)Nc1ccccc1	-1.8
CCCNC(=O)c1cnc(-c2ccccc2)nc1-c1ccccc1	10.3

Structure (SMILES)	hERG current change (%, negative = inhibition) at 1uM [%]
CCC(C)Sc1cc(C(F)(F)F)c(C(=O)Nc2ccc(Cl)cc2)cn1 (centres unmarked)	8.07
CC(C)CNCC1OCc2ccccc2CO1.Cl	13.9
Cc1ccccc1CNC(=O)CCC(=O)N1CCOc2ccc(Cl)cc21	4.97
O=C(NCCCCNC(=O)c1ccccn1)c1ccccn1	-0.293
COc1ccc(CNS(=O)(=O)CCNC(=O)c2ccc(OC)cc2)cc1	-4.38
O=C(COC(=O)CCc1nc2ccccc2s1)NCc1ccco1	14
COc1cccc(CNCCO)c1OCc1ccccc1.Cl	5.98
N#Cc1c[nH]n2c(=O)c3c(nc12)CCC3	14.5
CC(=O)c1cn(N2CCCCC2)c(=O)[nH]c1=O	12.4
O=c1oc(-c2cccs2)nc2ccc(Cl)cc12	17.4
S=c1[nH]nc(-c2ccccn2)n1/N=C/c1ccc(-c2ccccc2Cl)o1	11.2
CCOc1ccccc1NC(=O)CN1CCC(C(=O)c2ccc(F)cc2)CC1	-6.42
Cc1cccc(C)c1NC(=O)CNC(=O)C(NC(=O)c1ccc(C(C)(C)C)cc1)C(C)C (centres unmarked)	20.6
COc1ccc(OCCN2C(=O)c3ccccc3C2=O)c([N+](=O)[O-])c1	5.1
O=C(CCS(=O)(=O)Cc1ccccc1)NCC1CCCO1 (centres unmarked)	8.86
COc1cccc(NC(=O)CCNS(=O)(=O)c2ccc3c(c2)CC(C)N3C(=O)C2CC2)c1 (centres unmarked)	3.29
Cc1ccccc1C(=O)Nc1nc(-c2cccnc2)cs1	16.7
CCCNC(=O)C(=O)Nc1cc2c3c(c1)CCC(=O)N3CCC2	-4.76
O=C(CC1CCCCC1)NCc1ccc(Cl)cc1	11.8
Cc1cccc(-n2c(CN3C(=O)c4ccccc4C3=O)nc3ccccc3c2=O)n1	2.18
CCOc1ccc(NC(=O)C2C3c4ccccc4C(c4ccccc43)C2C(=O)O)cc1 (centres unmarked)	12.9
O=C(O)c1ccccc1N=N/C(=N/Nc1cc(S(=O)(=O)[O-])ccc1O)c1ccccc1.[Na+]	15.7
Cc1ccc(-c2csc(N(CCc3ccccc3)C(=O)COc3ccccc3)n2)cc1	14

Structure (SMILES)	hERG current change (%, negative = inhibition) at 1uM [%]
Cc1ccc(NC(=O)CN(C)C(=O)/C=C/c2cccc(F)c2)cc1	4.17
O=C(NCc1ccccn1)c1ccccc1-c1ccccc1	10.4
Cc1cc(C(=O)N2C(C)CCCC2C)no1 (centres unmarked)	12
CC[C@H](C)C(C(=O)N1CCN(C(=O)OC(C)(C)C)CC1)n1cc(C(CC(C)C)NC(=O)OC(C)(C)C)nn1 (some centres unmarked)	18.7
Cc1ccc2c(c1)N(CCC(=O)NCCCOC(C)C)C(=O)C(C)O2 (centres unmarked)	6.48
Cc1sc2ncnc(N3CCC(C(=O)NNC(=O)c4ccc(F)cc4)CC3)c2c1C	3.33
O=C(Nc1ccncc1)c1ccc(F)cc1	7.66
Cc1c[nH]c2cccc(OCC(O)CNC(C)(C)C)c12.Cl (centres unmarked)	-0.947
O=C1NNC(c2ccccc2)=N/C1=C\c1ccccc1	6.67
CCOc1c(Cl)cc(CNc2ccc(S(N)(=O)=O)cc2)cc1OC	-0.0201
Cc1nn(C(C)c2n[nH]c(=S)n2-c2cccc(Cl)c2)c(C)c1[N+](=O)[O-] (centres unmarked)	7.53
CN(C)C=O.O=C(OCC(=O)N1CCCc2ccccc21)C1CCN(S(=O)(=O)c2cccs2)CC1	3.08
NC(=NC(=O)c1ccccc1)N1CCOCC1	1.61
O=C(COc1ccc(Cl)cc1)Nc1ccc(CN2CCOCC2)cc1	-19.9
O=C(NCc1cccnc1)c1cccc(S(=O)(=O)N2CCCC2)c1	-4.45
Cc1c(C#N)c(O)n(CCO)c(=O)c1N=Nc1ccccc1	13.7
C/C(=N/NC(=O)c1cc2ccccc2cc1O)C1C(=O)c2ccccc2C1=O	20.6
CCOC(=O)c1cn(CC(=O)Nc2cccc(F)c2)nn1	-19.4
COC(=O)Cc1ccc(NC(=S)NC2CC2)cc1	-8.1
CCc1nc2sc3ccccc3c(=O)c2c(=O)n1Cc1ccco1	7.63
Cc1ccc(CCNC(=O)C23CN(Cc4ccccc4)CC2C(c2ccc([N+](=O)[O-])cc2)=NO3)cc1 (centres unmarked)	-5.81
CN(C)S(=O)(=O)c1ccc2oc(SCC(=O)NCC(F)(F)F)nc2c1	-8.9
O=C(O)[C@H]1CCCC[C@H]1C(=O)NCCc1ccccc1	3.43

Source: PMC4336329 (PLoS ONE, 2015)
